Measurements: PubChem BioAssay AID759 (NMMLSC, 2007)
The campaign covered roughly 190,000 compounds. About 270 (0.14%) were called active. The inconclusive results got no clear call from the source; some entries with a clear call stand among them for comparison.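 The calls were made as follows: active = GTP binding activity at least 20% away from the 100% baseline, either lowered as inhibitor or raised as activator; inconclusive = flagged as likely green fluorescent, judged across all proteins in the well; inactive = the rest.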

Molecular target: GTPase HRas (Homo sapiens) (UniProt P01112)
Assay: HRas wt fluorescent GTP binding changes, either direction – biochemical, wildtype, bead-based flow cytometry, multiplex, primary screen (AID 759);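 also: 0% = unlabeled GTP competition control and 100% = no-compound control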
Conditions: GST-Ras wt beads, Bodipy-FL-GTP binding, at 10 µM, actives lie on both sides

UniProt P01112, sequence (P01112 whole entry, looked up): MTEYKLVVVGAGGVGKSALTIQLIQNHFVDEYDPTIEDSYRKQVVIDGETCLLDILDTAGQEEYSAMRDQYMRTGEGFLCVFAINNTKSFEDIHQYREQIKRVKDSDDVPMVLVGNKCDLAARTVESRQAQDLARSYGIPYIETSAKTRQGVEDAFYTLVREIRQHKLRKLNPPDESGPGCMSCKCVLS

GTP binding activity, active:
C=CCN(CC=C)S(=O)(=O)c1ccc(C(=O)Nc2nc3c(s2)CCc2ccccc2-3)cc1 32%
Cc1ccc2c(c1)c1nnc(SCC(=O)N3CCCc4ccccc43)nc1n2CC(=O)O 67%
CCN(CC)c1ccc(-c2nn3c(-c4cccnc4)nnc3s2)cc1 73%
Cc1ccc(C(=O)Nn2c(O)c(C=C3N=c4ccccc4=N3)sc2=S)cc1 73%

GTP binding activity, inconclusive:
O=c1c2c3c(sc2ncn1Cc1ccc(F)cc1)CCC3 96%
c1coc(-c2nnc3sc(Cc4cccs4)nn23)c1 91%
C/C=C/C=N/Nc1nc(C)cc(=O)[nH]1 95%
O=C(Cn1c(=O)n(CC(=O)NCc2ccccc2)c2ccccc21)NCc1ccccc1 104%
CSc1nc(C)c2cc(C)oc2n1 97%
COc1ccc(Br)cc1/C=N/NC(=O)c1ccc(OC)c(OC)c1 93%
O=C(Cn1cnc2ccccc2c1=O)c1c[nH]c2ccccc12 102%
COC(=O)c1sc2ncccc2c1OCc1ccc(Cl)cc1Cl 93%
O=C(c1ccccc1)c1ccc(OCCCN2CCCC2)cc1 101%
C=CCN(CC=C)C(=O)c1ccc(OC2CCN(Cc3ccccn3)CC2)cc1 95%
O=C(O)c1nn(-c2ccccc2)c(-c2ccccc2)c1C(=O)c1ccccc1 96%
Nc1nc(N2CCCCC2)nc(N2CCCCC2)n1 108%
COc1cc(OC)nc(Oc2ccccc2C(=O)Oc2ccc(F)cc2Cl)n1 101%
O=C(CC1Sc2ccccc2NC1=O)Nc1ccccc1[N+](=O)[O-] (stereo not drawn) 100%
CC(C)N(C(=O)Cn1cc(SCC(=O)NCc2ccco2)c2ccccc21)C(C)C 93%
C#CCOc1ccc(/C=N/NC(=O)c2cccnc2)cc1OCC 87%
O=C(Cc1ccc(Br)cc1)OCC(=O)c1ccc2c(c1)OCCO2 95%
O=S(=O)(c1ccccc1)N(CC(O)Cn1c2ccccc2c2ccccc21)c1ccccc1 (stereo not drawn) 91%
O=C(O)C1CCCCC1C(=O)NCc1ccccc1 (stereo not drawn) 106%
NC(=O)NC(c1ccccc1)c1ccccc1F (stereo not drawn) 103%
O=C(Nc1ccccc1)Nc1cccc2nsnc12 96%
O=C1c2[nH]nc(-c3ccccc3O)c2C(c2cccc(Cl)c2)N1CC1CCCO1 (stereo not drawn) 96%
Cc1oc2cc(OCC(=O)O)ccc2c(=O)c1Oc1ccccc1 102%
Cc1nc(N2CCN(c3ccccn3)CC2)c2c(C)c(C(=O)Nc3ccc(F)cc3)sc2n1 93%
CC(=O)c1c(C)[nH]c(C(=O)OCc2ccc(F)cc2Cl)c1C 99%
COc1ccc(CC2(CO)CCN(Cc3ccc(NC(C)=O)cc3)CC2)cc1 98%
Nc1cc(=O)[nH]n1C1CCCC1 96%
CCc1ccc(N(CC(=O)NCc2ccc(F)cc2)C(=O)c2csnn2)cc1 96%
Cc1ccc(C2NC(=S)NC3=C2N2CCC3CC2)cc1 (stereo not drawn) 107%
O=C(CCC(=O)Nc1ccc(F)cc1)N/N=C/c1c[nH]c2ccccc12 96%
Cc1cc(C(F)(F)F)nn1Cc1n[nH]c(=S)n1-c1cccc(Cl)c1 94%
Cc1cccc(C)c1NC(=O)CSc1ccc([N+](=O)[O-])cn1 176%
CCSc1ccc2nnc(-c3cccs3)n2n1 89%
CCOC(=O)c1cccc(NC(=O)CCn2nnc3ccccc32)c1 103%
Cc1ccc(N2CC(C(=O)Nc3ccccn3)CC2=O)cc1 (stereo not drawn) 106%
CCOC(=O)C1CCN(CCC(=O)Nc2cccc(Cl)c2)CC1 104%
Cc1c(/C=C/C(=O)c2ccc(C(C)C)cc2)cnn1C 94%
CC(=O)Oc1ccc2c(c1)Oc1cc(OC(C)=O)ccc1C21OC(=O)c2ccccc21 496%
O=c1[nH]c(=O)c2ncc(-c3ccc(Cl)cc3)nc2[nH]1 93%
CS(=O)(=O)N1CCC(C(=O)O)CC1 110%
Clc1ccccc1-c1ccc(CN2CCN(c3ccccc3)CC2)o1 95%

GTP binding activity, inactive:
NS(=O)(=O)c1ccc(CCN2C(=O)/C(=C\c3ccc(Cl)cc3)SC2=S)cc1 84%
COc1ccc(Cl)cc1NC(=O)CCNC(=O)OCc1ccccc1 95%
CCOc1ccc2nc(SCc3ccc(CC(=O)O)cc3)c(C#N)cc2c1 84%
O=C(N/N=C1\CCCc2ccccc21)C(O)c1ccccc1 (stereo not drawn) 101%
NC(=O)c1ccc(NCCCN2CCOCC2)c([N+](=O)[O-])c1 96%
O=NN(CCc1ccncc1)c1ccc(OCc2ccccc2)cc1 93%
CCn1c2ccccc2c2cc(NC(=O)CC(C)=O)ccc21 99%
Cc1ccccc1NC(=O)c1cc2c(C)nc3ccccc3c2o1 90%
O=C(NCCC1=CCCCC1)Nc1ccc2nsnc2c1 96%
Cn1cccc1/C=C1\SC(=S)N(NC(=O)c2ccccc2Cl)C1=O 89%
Cc1ccc(NC(=O)COC(=O)CSC(=S)N2CCOCC2)cc1 96%
CCc1ccc(CN(C)Cc2nc(Cc3ccccc3)no2)nc1 98%
OCCC1CN(Cc2ccccc2OC2CCCC2)CCN1Cc1ccsc1 (stereo not drawn) 98%
CCOc1ccc(-c2nn(-c3ccccc3)cc2/C=C(\C#N)S(=O)(=O)c2ccccc2)cc1C 106%
Cc1ccc2ncccc2c1NC(=S)NC(=O)c1ccccc1 94%
Cc1ncsc1C(=O)O 96%
Cc1ccc(S(=O)(=O)N2CCC(NC(=O)c3cccc(C)c3)CC2)cc1 93%
COc1ccccc1NC(=O)CSc1nnc(COc2ccccc2OC)n1C 97%
